Out of some 310,000 compounds screened, about 2,200 (0.71%) showed an effect of 50% or more. Effects have a minus sign here. The list shows a part of the results.
Target: human ether-à-go-go-related gene (hERG) potassium channel (human, UniProt Q12809)
Assay: primary screen, population patch clamp on CHO cells stably expressing hERG

human ether-à-go-go-related gene (hERG) potassium channel, sequence (Q12809 whole entry, looked up): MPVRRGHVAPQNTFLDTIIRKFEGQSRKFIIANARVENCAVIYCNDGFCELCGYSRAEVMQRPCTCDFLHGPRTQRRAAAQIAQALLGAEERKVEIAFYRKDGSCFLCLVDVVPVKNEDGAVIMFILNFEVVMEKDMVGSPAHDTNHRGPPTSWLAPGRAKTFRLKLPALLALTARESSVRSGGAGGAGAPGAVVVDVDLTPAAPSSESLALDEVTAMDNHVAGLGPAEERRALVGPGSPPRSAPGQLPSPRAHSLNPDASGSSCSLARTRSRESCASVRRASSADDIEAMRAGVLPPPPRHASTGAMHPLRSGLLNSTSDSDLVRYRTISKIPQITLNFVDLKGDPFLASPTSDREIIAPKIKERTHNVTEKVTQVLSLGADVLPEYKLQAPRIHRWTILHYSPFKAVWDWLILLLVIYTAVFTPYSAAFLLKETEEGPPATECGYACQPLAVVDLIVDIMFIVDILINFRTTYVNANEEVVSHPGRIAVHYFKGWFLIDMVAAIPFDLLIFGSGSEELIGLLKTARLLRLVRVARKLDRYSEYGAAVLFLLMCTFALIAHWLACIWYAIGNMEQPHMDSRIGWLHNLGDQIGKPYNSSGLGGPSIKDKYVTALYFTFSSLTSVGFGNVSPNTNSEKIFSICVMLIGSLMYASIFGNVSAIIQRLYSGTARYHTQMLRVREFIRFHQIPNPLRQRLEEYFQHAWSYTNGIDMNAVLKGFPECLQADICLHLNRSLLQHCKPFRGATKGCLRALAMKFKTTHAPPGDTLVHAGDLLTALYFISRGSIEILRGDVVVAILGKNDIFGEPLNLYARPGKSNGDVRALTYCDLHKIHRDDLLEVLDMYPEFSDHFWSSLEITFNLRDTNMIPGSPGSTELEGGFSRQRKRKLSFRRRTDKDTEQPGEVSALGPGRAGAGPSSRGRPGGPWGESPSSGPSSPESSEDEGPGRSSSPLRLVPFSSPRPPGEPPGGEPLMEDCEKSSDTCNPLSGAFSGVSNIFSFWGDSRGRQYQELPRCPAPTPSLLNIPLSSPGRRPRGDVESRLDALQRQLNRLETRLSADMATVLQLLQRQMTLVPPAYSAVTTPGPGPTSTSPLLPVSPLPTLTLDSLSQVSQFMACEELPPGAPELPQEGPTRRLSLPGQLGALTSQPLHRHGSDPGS

| SMILES | hERG current change (%, negative = inhibition) at 1uM [%] |
| --- | --- |
| CC(=O)CCn1cc([N+](=O)[O-])nc1C | 14 |
| O=C(NCc1ccccc1Cl)C1CCCN(C(=O)Nc2ccc(F)cc2)C1 (stereo not drawn) | 3.62 |
| COc1ccc(C)cc1NC(=O)Nc1ccc(Br)cn1 | 14.8 |
| Cc1ccc(Cl)cc1NC(=S)N(Cc1cccs1)C1CCCC1 | 16.3 |
| O=C(Nc1ccccc1N1CCN(C(=O)c2ccccc2)CC1)c1ccco1 | -34.3 |
| CCOC(=O)c1c(CSc2ccccc2)oc2ccc(O)cc12 | 0.183 |
| O=C(Nc1cccc(C(=O)N2CCCCC2)c1)c1ccccc1Br | -3.81 |
| Cn1c(C(=O)N2CCCC(C(=O)NCCc3ccccc3)C2)cc2sccc21 (stereo not drawn) | 2.42 |
| COc1ccc(Cl)cc1NC(=O)CC(C)=O | 11.1 |
| COc1ccccc1OCc1ccc(C(=O)N2CCOCC2)o1 | 4.23 |
| O=C(COC(=O)c1cnc(Cl)c(Cl)c1)NCc1ccc2c(c1)OCO2 | 16.2 |
| COc1cc(-c2nc(C(F)(F)F)c(OC)o2)cc(OC)c1OC | 14 |
| COc1ccc(C2CC(c3ccco3)n3ncnc3N2)cc1 (stereo not drawn) | -4.58 |
| Cc1ccc(S(=O)(=O)N2CCCCC2)cc1C(=O)NC1CCCCC1 | 8.41 |
| COCCN(CC(=O)Nc1ccccc1C(F)(F)F)C(=O)/C=C/c1ccc2ccccc2n1 | 5.34 |
| COc1ccc(C2Nc3ccccc3C(=O)N2c2ccc(C)cc2)cc1Cn1cc([N+](=O)[O-])cn1 (stereo not drawn) | 11.1 |
| O=C1Cc2ccccc2Sc2ccccc21 | 11.7 |
| O=C(/C=C/Nc1ccc(F)cc1F)c1ccco1 | 5.55 |
| CCN1CCN(c2ccc(NC(=O)COc3ccc([N+](=O)[O-])cc3)cc2)CC1 | 2.34 |
| COc1ccc(Br)cc1CNc1ccc(O)cc1 | 10.8 |
| O=C(CCS(=O)(=O)c1ccc(Cl)cc1)N1CCN(c2ccc(F)cc2)CC1 | -23.8 |
| CC(C)(C)C(=O)NC1CCN(S(=O)(=O)c2cccc(C(F)(F)F)c2)CC1 | 4.11 |
| Cc1ccc(N(C(=O)Nc2ccccc2)C2=NCCC2)cc1 | 15.5 |

| SMILES | hERG current change (%, negative = inhibition) at 1uM [%] |
| --- | --- |
| Cc1ccnc(NCc2cccc3ccccc23)c1.Cl | 14 |
| Cc1ccc(NC(=O)CSc2nnc(C)c(=O)n2N)cc1Cl | 1.15 |
| COc1ccc(CCNC(=O)c2c(O)c3ccccc3[nH]c2=O)cc1 | 9.73 |
| O=C(CCNC(=O)Cn1cnc2ccccc2c1=O)NCCC1=CCCCC1 | 9.44 |
| CC1=NN(c2ccccc2)C(=O)C1C=Nc1ccc(N(C)C)cc1 (stereo not drawn) | 16.5 |
| Cc1nn(-c2ccccc2)c(N2CCCC2)c1/C=N/NC(=S)Nc1ccccc1F | 7.19 |
| C1CCN(C2CCN(c3nc4nonc4nc3N3CCSCC3)CC2)C1 | 5.07 |
| CSc1nnc(NC(=O)c2cccc(S(=O)(=O)N3CCOCC3)c2)s1 | -1.42 |
| Cc1[nH]c2ccccc2c1/C=N/NC(=O)Nc1ccccc1 | 6.44 |
| COc1ccc(CNC(=O)C2CC(=O)N(C3CCCC3)C2)cc1 (stereo not drawn) | 20.2 |
| CCc1ccc(NC(=O)N(CCCN2CCOCC2)Cc2cccs2)cc1 | -13.7 |
| CCOC(=O)c1c(NC(=O)COC(=O)Cn2c(C)nc3ccccc32)sc2c1CCCC2 | 7.53 |
| CC(=O)Nc1ccc(S(=O)(=O)NC2CC(=O)N(c3ccc4c(c3)OCCO4)C2)cc1 (stereo not drawn) | 2.51 |
| c1ccc2c(Nc3nc(-c4ccncc4)nc4ccccc34)cccc2c1 | 24.2 |
| CC(OC(=O)c1cc2sccc2n1C)C(=O)NCc1cccs1 (stereo not drawn) | 14.1 |
| Cc1nnc(NC(=O)CSc2ccccn2)s1 | -3.34 |
| CCOc1cccc(-c2cc(C(=O)N/N=C/c3ccc(OC)c(CN4CCOCC4)c3)c3ccccc3n2)c1 | 18.7 |
| O=C(NCCSc1ncc(-c2ccccc2)[nH]1)c1ccco1 | 5.68 |
| Nc1cc(S(=O)(=O)N2CCCCC2)ccc1Oc1ccccc1 | 10.4 |
| O=C(O)c1ccc(S(=O)(=O)N(CCc2ccccc2)Cc2ccc(Cl)cc2)cc1 | 11.5 |
| Oc1cc2c(cc1CN1CCN(c3ncccn3)CC1)OCO2 | 13.9 |
| O=C(CCCn1c(=O)[nH]c2cc(Cl)ccc2c1=O)NCC1CCCO1 (stereo not drawn) | 2.24 |

From article PMC4336329 (PLoS ONE, 2015)
